Out of some 410,000 compounds screened, about 5,000 (1.2%) were called active. This list was built around the results that the source calls inconclusive (neither active nor inactive); the mix of calls is not that of the screen. Calls follow the shape of the dose curve; as a rule, active = well fitted inhibition curve with a large enough effect; inconclusive = small, poorly fitted or top-dose-only effect; inactive = no such curve, though single readings can be large or run the other way. Potencies beside an inconclusive call are fits to weak or partial responses and may not hold up.
Assay: qHTS for Inhibitors of TGF-b; also: nearly all actives have a fitted effect of over 65% in size
Conditions: HepG2 CAGA-GFP TGF-b/SMAD3 reporter, GFP fluorescence, 18 h, TGF-beta stimulated, 500 pg/mL final; series mostly up to 46.1 µM
Method in brief: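 HEPG2 CAGA-GFP, 1000 cells/well; 2 h settle, 37 C; cpd via pin tool; TGF-b 500 pg/mL final; 18 h, 37 C; GFP imaging ex488/em500-530; %Activity normalised to -TGF-b and +DMSO controls; CRC fit, curve class.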
Potency is read from the fitted curve at half-maximal effect; tags tell the direction and shape of the fitted curve.

SMILES	Potency
C=CCOc1c(Br)cc(/C=C2\SC(=Nc3ccccc3)NC2=O)cc1OC	inconclusive: 22.4 µM [inhibitor, single point]
O=S1(=O)NC(c2ccccc2)CC(CC2CCCCC2)O1 (stereo unspecified)	inconclusive: 11.2 µM [inhibitor, single point]
CCOC(=O)c1c(NC(=O)COC(=O)/C=C/c2ccccc2)sc(C(=O)NC)c1C	inactive
CN(C)/C=C1\Cc2ccccc2C1=O	inactive
Cc1ccc(Cl)cc1N1CCN(CCCNC(=O)C2COc3ccccc3C2)CC1 (stereo unspecified)	inconclusive: 22.4 µM [inhibitor, single point]
COc1ccc(-c2coc3c(C(=O)Nc4cccc(NS(C)(=O)=O)c4)cccc23)c(C)c1	inconclusive: 35.5 µM [inhibitor, single point]
Cc1[nH]c2ccccc2c1SCCNC(=O)c1ccc(Br)o1	inconclusive: 35.5 µM [inhibitor, single point]
O=C(NCc1cccs1)c1ccc(CSc2nc3ccncc3n2Cc2ccccc2)cc1	inconclusive: 35.5 µM [inhibitor, single point]
CC1CCC(NC(=O)c2ccc(CS(=O)(=O)c3cccc(C(F)(F)F)c3)o2)CC1 (stereo unspecified)	inconclusive: 35.5 µM [inhibitor, single point]
Cc1ccc(-c2nn(Cc3ccccc3)cc2/C=C/C(=O)O)cc1	inactive
CCOc1ccc(S(=O)(=O)NCCc2csc3nc(-c4ccc(F)cc4)nn23)cc1	inconclusive: 14.1 µM [inhibitor, partial curve, poor fit]
COc1ccc(NC(=O)c2n[nH]c(=O)c3ccccc23)cc1S(=O)(=O)N1CCCCC1	inconclusive: 0.112 µM [inhibitor, full curve, poor fit]
Cc1ccc(S(=O)(=O)NCc2ccc(C(=O)NCCN(Cc3ccccc3)C(C)C)cc2)cc1	inconclusive: 10 µM [inhibitor, partial curve]
COc1ccc(NC(=O)Cn2ncc(Cl)c(Cl)c2=O)cc1S(=O)(=O)N1CCOCC1	inconclusive: 22.4 µM [inhibitor, single point]
CCN(CC)C(=O)C1=C(C)N(Cc2ccc(C(C)(C)C)cc2)C(=O)C(CC(=O)NCc2ccco2)C1 (stereo unspecified)	inactive
CCN(CC)CCN(C(=O)c1ccco1)c1nc2cc(C)cc(C)c2s1	inconclusive: 35.5 µM [inhibitor, single point]
CCOc1cc(-c2ccc(OC(=O)c3ccc(C)cc3)c(OC)c2)cc(=O)c2c(C)oc(C)c12	inconclusive: 28.2 µM [inhibitor, single point]
CS(=O)(=O)n1nc(-c2ccc(Cl)cc2)nc1SCc1ccccc1	inconclusive: 35.5 µM [inhibitor, single point]
Cc1ccc(/C([O-])=C(/C(=S)Nc2ccc(SC(F)F)cc2)[n+]2ccccc2)cc1[N+](=O)[O-]	inconclusive: 17.8 µM [inhibitor, single point]
CC(=O)c1ccc(NC(=O)CN(C)S(=O)(=O)c2cc3c(cc2Cl)NC(=O)CO3)cc1	inactive
CC(C)C[C@@H]1NC(=O)N(CCN2CCOCC2)C1=O	inconclusive: 5.62 µM [inhibitor, single point]
CCN1C(=O)C(CC(=O)Nc2ccc(OC)cc2)N(CCc2ccccc2F)C1=S (stereo unspecified)	inconclusive: 20 µM [inhibitor, single point]

SMILES	Potency
Cc1cc(C)c2c(CC(=O)Nc3ccc(S(=O)(=O)N4CCCCC4)cc3)coc2c1	inconclusive: 7.94 µM [inhibitor, partial curve, poor fit]
CC(C)CN1CCC1(C)C(=O)Nc1cc(-c2ccccc2)nn1C (stereo unspecified)	inactive
COc1cccc(-c2nn(C)c3sc(C(=O)NCc4ccco4)cc23)c1	inconclusive: 35.5 µM [inhibitor, single point]
Cc1cc(Cl)ccc1C(O)c1ncc(-c2ccc(C(F)(F)F)cc2)[nH]1 (stereo unspecified)	inconclusive: 35.5 µM [inhibitor, single point]
Cc1cccc(CSCc2ccc(C(=O)NCCc3ccccc3)o2)c1	inconclusive: 22.4 µM [inhibitor, single point]
S=C(NCc1cccnc1)Nc1ccc(Oc2ccc(Cl)cc2)cc1	inconclusive: 22.4 µM [inhibitor, single point]
COc1cc(Cl)c(CN2CCCC(CO)(Cc3cccc(Cl)c3)C2)cc1OC (stereo unspecified)	inconclusive: 11.2 µM [inhibitor, partial curve, poor fit]
Cc1nc(N)sc1C(=O)Nc1ccccc1	inactive
O=C(Nc1ccccc1)N1CCCC(c2nc(-c3ccc(F)cc3)no2)C1 (stereo unspecified)	inactive
CC(C)OCC1CO1 (stereo unspecified)	inactive
Cc1ccc2c(c1)N(C(=O)N1CCC(C(=O)NCc3cccc(Br)c3)CC1)CCO2	inconclusive: 8.91 µM [inhibitor, partial curve, poor fit]
CCCc1nn(C)c2c(=O)[nH]c(-c3cc(S(=O)(=O)Nc4ccc(NC(C)=O)cc4)ccc3OCC)nc12	inactive
CSCCC(Nc1ccc(S(=O)(=O)N2CCOCC2)cc1[N+](=O)[O-])C(=O)OCC(=O)N(C(C)C)C(C)C (stereo unspecified)	inconclusive: 2.24 µM [inhibitor, single point]
CN1/C(=C\C(=S)NC(=O)c2cccc(Br)c2)C(C)(C)c2ccccc21	inconclusive: 17.8 µM [inhibitor, partial curve, poor fit]
COc1ccc(C(NC(=O)C2CCN(CCOc3ccc(Cl)cc3Cl)CC2)c2ccccc2C)cn1 (stereo unspecified)	inconclusive: 35.5 µM [inhibitor, single point]
CCc1ccc(-n2nnc(-c3nsc(NC(=O)c4ccccc4Cl)n3)c2C)cc1	inconclusive: 7.08 µM [inhibitor, partial curve]
COCCn1c(-c2ccccc2)csc1=Nc1cccnc1	inconclusive: 20 µM [inhibitor, single point]
Cc1c(CC(=O)NCCC(C)C)c(=O)oc2cc3c(cc12)CCC(C)(C)O3	inactive
COc1cccc(Cn2cnc3c(NS(=O)(=O)c4ccc(Cl)cc4Cl)c(C)c(C)cc32)c1	inconclusive: 25.1 µM [inhibitor, single point]
Cc1cccc(C)c1NC(=O)Nc1csc2c1CCCC2	inactive
C=CC[C@H](CC(=O)N(CCO)Cc1ccccc1)C(=O)N[C@@H](C)COC(=O)[C@@H](CC=C)Cc1ccc(F)cc1	inconclusive: 4.47 µM [inhibitor, partial curve]
COc1ccccc1NS(=O)(=O)c1ccc(O)cc1	inactive

SMILES	Potency
O=C1C(=O)c2ccccc2C(O)=C1CCCCl	active: 2.51 µM
COc1ccc(Cl)cc1C(=O)N(Cc1nc(-c2cccc(C)c2)no1)C(C)C	inconclusive: 35.5 µM [inhibitor, single point]
CC1(C)Cc2c(ccc3ccccc23)/C(=C/C(=O)N2CCCCC2)N1	inconclusive: 12.6 µM [inhibitor, partial curve, poor fit]
Cc1ccccc1-c1nc(SCC(=O)NCc2ccc(F)cc2)c2c(=O)n(C)c(=O)n(C)c2n1	inactive
O=C(Nc1ccc(Br)cc1)c1ccc(F)c(S(=O)(=O)NC2CCCCCC2)c1	inconclusive: 7.08 µM [inhibitor, partial curve, poor fit]
Cc1cc(C)cc(N=Cc2ccc([N+](=O)[O-])s2)c1	active: 11.2 µM
O=C(COC(=O)CN1C(=O)C2CCCCC2C1=O)Nc1cc(F)ccc1F (stereo unspecified)	inactive
O=C(OCc1ccccc1)N1CCC2CC1c1cc(N3CCN(S(=O)(=O)c4cccc5ccccc45)CC3)ccc12 (stereo unspecified)	inactive
CCOC(=O)c1cc2c(=O)n3ccccc3nc2n(Cc2ccco2)c1=NC(=O)c1ccc(Br)cc1	inconclusive: 0.1 µM [inhibitor, full curve, poor fit]
Cc1ccc(NC(=O)Cn2c(O)c(N=NC(=O)c3cc4ccccc4cc3O)c3ccccc32)cc1	inactive
Nc1n[nH]c(N)c1N=Nc1ccccc1F	inactive
COc1cc(C(=O)Nc2nnc(C3=COCCO3)o2)cc(OC)c1OC	inactive
CC1CN(C(=O)c2cc(S(=O)(=O)N3CCN(c4ccccc4)CC3)ccc2Cl)CC(C)O1 (stereo unspecified)	inactive
COc1ccccc1Nc1c2c(nc3ccc(N)cc13)CCCC2	inconclusive: 35.5 µM [inhibitor, single point]
O=C(NNC(=O)C1CCCN(S(=O)(=O)c2cccc(F)c2)C1)C1CC1 (stereo unspecified)	inactive
Cc1nc2ccc(NC(=O)c3ccc(Cl)c(NC(=O)c4cccs4)c3)cc2s1	inconclusive: 3.55 µM [inhibitor, partial curve, poor fit]
CC(=O)Nc1cc(-c2cccc(C)c2)cn2c(-c3ccc(S(C)(=O)=O)cc3)cnc12	inconclusive: 15.8 µM [inhibitor, single point]
Cc1nn(Cc2cccc(C(=O)Nc3ccn(Cc4c(F)c(F)cc(F)c4F)n3)c2)c(C)c1[N+](=O)[O-]	inconclusive: 35.5 µM [inhibitor, single point]
O=C(NC(=S)Nc1ccc(N2CCCCC2)c(Cl)c1)c1cccs1	inconclusive: 35.5 µM [inhibitor, single point]
COCCCNC1=C(Cl)C(=O)c2ccccc2C1=O	inconclusive: 11.2 µM [inhibitor, partial curve, poor fit]
CCOC(=O)c1nc(C)n(-c2ccc([N+](=O)[O-])cc2)n1	inconclusive: 35.5 µM [inhibitor, single point]
Fc1ccc2[nH]c3c(NCc4ccccc4)ncnc3c2c1	inconclusive: 35.5 µM [inhibitor, single point]

Source: PubChem BioAssay AID588855 (National Center for Advancing Translational Sciences (NCATS), 2011)
